PubChem BioAssay AID485364 (National Center for Advancing Translational Sciences (NCATS), 2010)
Screen size: about 360,000 compounds; about 11,000 (3.1%) were called active. Inconclusive results, whose numbers are uncertain, are shown with a selection of clear calls. The call rests on the fitted dose curve; in most records, active means well fitted inhibition curve with a large enough effect; inconclusive means small, poorly fitted or top-dose-only effect; inactive means no such curve, though single readings can be large or run the other way. Potencies of inconclusive entries are left out as doubtful fits.
Further: nearly all actives have a fitted effect of over 60% in size.
On the % scale 0 is the no-effect control and ±100 the full control effect; potency means the concentration at half of the fitted maximal effect; tags describe the fitted curve by direction and shape.

The compounds below were run against Schistosoma mansoni thioredoxin glutathione reductase (TGR) (UniProt Q962Y6) (assay: qHTS Assay for the Inhibitors of Schistosoma Mansoni Peroxiredoxins). Settings: purified TGR, DTNB reduction, TNB absorbance 405 nm; activity change, negative = inhibition: at 114 µM (top of the series) unless noted.
Procedure, shortened: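 First, TGR (20 nM dispensed) and NADPH were mixed with compound. Second, a 15 min room-temperature incubation followed. Third, further NADPH and then DTNB were added to start the reaction. Finally, TNB absorbance was monitored kinetically.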
In the case of `Cc1ccc(NC(=O)CSc2ccc(-c3ccco3)nn2)cc1`, the Potency is reported as active: 10 µM. With `CCOc1cc(C(=O)Nc2cc3c(cc2N2CCCC2)n(C)c(=O)c(=O)n3C)cc(OCC)c1OCC` the Potency was active: 50.1 µM. With `CCCN(CCC)C(=O)c1ccc2c(=O)n(Cc3ccco3)c(=S)[nH]c2c1` the Potency was inconclusive [inhibitor, full curve, poor fit]. `N#CC1=C(N)C(C#N)(C#N)[C@H](c2ccncc2)[C@H]2CN(C(=O)OCc3ccccc3)CC=C12` was tested, and the Potency was inconclusive [inhibitor, full curve, poor fit]. For `CCn1cc(C(=O)NCc2ccco2)c(=O)c2cc(S(=O)(=O)N3CC(C)CC(C)C3)ccc21` (configuration not stated), the Potency was inconclusive [inhibitor, single point]. In the case of `COc1ccc2c(/C=N/NS(=O)(=O)c3ccc(C)cc3)c[nH]c2c1`, the Potency is reported as active: 14.1 µM. In the case of `O=C(NCc1ccccn1)c1ccc2c(=O)n(CCc3ccccc3)c(=O)[nH]c2c1`, the Potency is reported as inconclusive [inhibitor, single point]. For `COc1ccccc1NS(=O)(=O)c1ccc(C(=O)Nc2ncccc2O)cc1`, the “activity change, negative = inhibition” value was inactive: -25.1%. For `Cc1cc(C)c2c(n1)nn1c(NCCCN(C)C)cc(C)nc21`, the Potency was inconclusive [inhibitor, partial curve]. With `Cc1nn(-c2ccccc2)c2[nH]c(=O)c(CNc3ccc(N4CCOCC4)cc3)cc12` the Potency was inconclusive [inhibitor, partial curve]. `CC(/C=C\C=C\c1ccccc1)=N\NC(=O)c1cncc(Br)c1` was tested, and the Potency was active: 39.8 µM. In the case of `O=S(=O)(NCC(c1ccccc1)N1CCNCC1)c1ccc(Cl)cc1` (configuration not stated), the Potency is reported as inconclusive [inhibitor, partial curve]. `CC(C)C(=O)N1CCN(c2ccc(NC(=S)NC(=O)c3cc4ccccc4o3)cc2)CC1` was tested, and the Potency was inconclusive [inhibitor, full curve, poor fit]. For `COc1ccc(-c2nc(CSCC(=O)N3CCc4ccccc43)c(C)o2)cc1OC`, the Potency was inconclusive [inhibitor, partial curve]. In the case of `CCN(CC)CCN=Cc1c(O)n(CCC2=CCCCC2)c(=O)[nH]c1=O`, the Potency is reported as inconclusive [inhibitor, full curve]. In the case of `CC(NC(=O)c1ccc([N+](=O)[O-])cc1Cl)C1CC2CCC1C2` (configuration not stated), the “activity change, negative = inhibition” value is reported as inactive: -23.6%. `O=C(NC1CCCCC1)C(c1cccs1)N(C(=O)c1ccco1)c1ccc2c(c1)OCCO2` (configuration not stated) was tested, and the Potency was inconclusive [inhibitor, partial curve]. In the case of `CC1=CC(C)(C)NC(=S)N1c1cccc2cc(S(=O)(=O)O)ccc12`, the Potency is reported as inconclusive [inhibitor, partial curve]. For `ClC1(Cl)CC1CSc1nnc(-c2ccncc2)o1` (configuration not stated), the “activity change, negative = inhibition” value was inactive: 0.476%. `O=S(=O)(c1ccc(C2CCCCC2)cc1)N1CCN(c2ccc(Cl)c(Cl)c2)CC1` was tested, and the “activity change, negative = inhibition” value was inactive: 0.0481%. For `Cc1ccc(Cl)cc1-c1ccc(C=Nc2ccc(N3CCOCC3)cc2)o1`, the Potency was inconclusive [inhibitor, single point]. For `Cc1ccc(CN(C(=O)c2ccc(Cl)c([N+](=O)[O-])c2)C2CCS(=O)(=O)C2)o1` (configuration not stated), the “activity change, negative = inhibition” value was inactive: -13.4%. For `COc1ccc(CCN(C)C(=O)COC(=O)/C=C/c2ccc(C)o2)cc1OC`, the Potency was active: 15.8 µM. In the case of `CC(=O)c1ccc(NC(=S)Nc2cccc3cnccc23)cc1`, the Potency is reported as active: 20 µM. `O=S(=O)(NCCC(c1ccc(F)cc1)c1ccco1)c1ccccc1` (configuration not stated) was tested, and the Potency was inconclusive [inhibitor, partial curve]. With `CCC(=O)N(CCC(c1ccc(C)cc1)c1ccco1)Cc1ccco1` (configuration not stated) the Potency was active: 14.1 µM. In the case of `CCCOCc1ccc(O)c2ncccc12`, the Potency is reported as active: 28.2 µM. In the case of `CN1C(=O)C(=Cc2ccc(N3CCCCCC3)o2)C(=O)N(C)C1=S`, the Potency is reported as active: 35.5 µM. For `CCOC(=O)CSc1nc2ccccc2c(=O)n1NC(=O)c1ccccc1`, the Potency was inconclusive [inhibitor, single point]. `CN1CCN(c2ccc(NC(=O)c3ccc([N+](=O)[O-])o3)cc2Cl)CC1` was tested, and the Potency was inconclusive [inhibitor, partial curve]. With `CCOC(=O)CSCCOc1ccc(C=C2C(=O)NC(=O)NC2=O)cc1OC` the Potency was inconclusive [inhibitor, full curve, poor fit]. For `COc1ccccc1CNC(=O)C1CCCN(S(=O)(=O)c2cccc3nonc23)C1` (configuration not stated), the Potency was inconclusive [inhibitor, single point]. `CCC(C)(C)n1nnnc1C(c1cc2cc(C)cc(C)c2[nH]c1=O)N1CCN(C(=O)c2ccco2)CC1` (configuration not stated) was tested, and the Potency was active: 17.8 µM. For `CCOC(=O)c1ccc(NC(=O)CN2CCN(CCN=CC3=C(O)CC(C)(C)CC3=O)CC2)cc1`, the Potency was inconclusive [inhibitor, partial curve]. For `CCCn1c(N)c(C(c2ccc(OC)cc2)N2CCN(c3ccccc3)CC2)c(=O)[nH]c1=O` (configuration not stated), the Potency was active: 2 µM. For `COc1cc(/C=C2\C(=O)N(CCC#N)N=C2C)ccc1OCC(=O)Nc1ccccc1`, the “activity change, negative = inhibition” value was inactive: 3.54%. For `CCCCOCP(=O)(CC)COCCCC`, the “activity change, negative = inhibition” value was inactive: -5.96%. With `COc1cccc(-c2nnc(SCc3ccc(C#N)cc3)n2Cc2ccco2)c1` the Potency was active: 39.8 µM. For `NC(=O)c1cc(NC(=O)CCCc2nc3ccccc3s2)cc(C(N)=O)c1`, the Potency was inconclusive [inhibitor, full curve]. In the case of `O=C(c1ccc(F)cc1F)N(Cc1ccccn1)Cc1ccco1`, the Potency is reported as inconclusive [inhibitor, partial curve]. In the case of `Cc1c(C(=O)N/N=C/c2ccc(O)c(Br)c2)sc(N)c1C#N`, the Potency is reported as inconclusive [inhibitor, single point]. `Cc1cccc2sc(NC(=O)C3CCN(C(=O)c4ccco4)CC3)nc12` was tested, and the “activity change, negative = inhibition” value was inactive: -7.91%. With `O=C1c2ccccc2C(=O)C1c1ccc(Br)cc1` the “activity change, negative = inhibition” value was inactive: -7.68%. In the case of `Cn1cccc1Cc1nnc(SCC(=O)Nc2ccc3c(c2)OCCO3)n1-c1ccc(F)cc1`, the Potency is reported as inconclusive [inhibitor, partial curve]. `COc1cccc(CNC(=O)CCC2CCCN(c3cc(C)nc(N4CCCC4)n3)C2)c1` (configuration not stated) was tested, and the “activity change, negative = inhibition” value was inactive: 10.5%. With `Cc1ccc(/C=N/OC(=O)c2c(C)noc2-c2snnc2C)cc1` the “activity change, negative = inhibition” value was inactive: 5.79%. In the case of `O=C(N/N=C\c1ccccc1OCc1ccccc1)c1ccco1`, the “activity change, negative = inhibition” value is reported as inactive: 2.69%. With `C=CCn1c2ccccc2c(=O)c2cc(C#Cc3ccccn3)ccc21` the Potency was inconclusive [inhibitor, partial curve]. In the case of `O=C(CCS(=O)(=O)c1ccc(Br)cc1)Nc1cc(F)ccc1F`, the Potency is reported as active: 12.6 µM. With `COc1cccc2cc(C(=O)N3CCN(C(=O)c4ccccc4)CC3)c(=O)oc12` the Potency was inconclusive [inhibitor, full curve, poor fit]. `Cc1occc1-c1nnc(SCC(=O)c2ccc(F)cc2)o1` was tested, and the Potency was inconclusive [inhibitor, partial curve]. With `Cc1nn(Cc2ccc(Cl)cc2Cl)c(C)c1NC(=O)CCl` the Potency was active: 39.8 µM. `Cc1c([N+](=O)[O-])c(C(=O)Sc2ccc(Br)cc2)nn1C` was tested, and the Potency was active: 0.501 µM. For `CN(C)C(CNC(=O)c1ccc(C(F)(F)F)cc1)c1ccco1` (configuration not stated), the “activity change, negative = inhibition” value was inactive: -14%. In the case of `CNS(=O)(=O)c1ccc(NC(=S)Nc2ccc3c(c2)OCO3)cc1`, the Potency is reported as inconclusive [inhibitor, full curve]. `CCOC(=O)CN1C(=O)C(O)(c2c(C)[nH]c3ccccc23)c2ccccc21` (configuration not stated) was tested, and the Potency was inconclusive [inhibitor, partial curve]. In the case of `N#C/C(=C(/O)CCl)c1nc(-c2ccccc2)cs1`, the Potency is reported as inconclusive [inhibitor, partial curve, poor fit]. For `O=C(CCl)Nc1cccc(Oc2cnccn2)c1`, the Potency was active: 11.2 µM. For `COc1ccc(C(C#N)N2CCC(c3ccccc3)=N2)cc1` (configuration not stated), the Potency was inconclusive [inhibitor, full curve, poor fit]. In the case of `C#CCOCCOCCOCCNc1nc(N2CCN(C(=O)[C@H](CCC(=O)O)n3cc(C(N)CO)nn3)CC2)nc(N2CCN(C(=O)[C@H](Cc3ccc(O)cc3)n3cc(C(N)[C@H](C)CC)nn3)CC2)n1` (some centres not stated), the Potency is reported as active: 35.5 µM. For `CCN1CCN(C(=O)CS(=O)Cc2nc(-c3cccc(C)c3)oc2C)CC1` (configuration not stated), the Potency was active: 39.8 µM. With `COc1ccc(OC)c(NC(=O)CSc2nc(=O)n(CCN(C)C)c3c2CCC3)c1` the “activity change, negative = inhibition” value was inactive: 6.79%. `CCCS(=O)(=O)c1c(S(=O)(=O)CCC)c2c(C)cccn2c1C(=O)OC` was tested, and the Potency was active: 10 µM. With `O=C(C[n+]1cc(-c2ccccc2)n2c1CCC2)Nc1nc(-c2ccccc2)cs1` the “activity change, negative = inhibition” value was inactive: -7.22%. `O=S(=O)(c1ccccc1)[C@@]1(c2ccccc2)C[C@@H]2ON=C(c3cccc(Br)c3)[C@@H]2C1` was tested, and the “activity change, negative = inhibition” value was inactive: -9.75%. In the case of `Fc1ccccc1C1CCN(Cc2nc(CC3CC3)no2)C1` (configuration not stated), the Potency is reported as inconclusive [inhibitor, partial curve]. For `COC(=O)c1ccccc1NC(=O)CN1C(=O)C2CCCN2c2ncc(Cl)cc21` (configuration not stated), the Potency was inconclusive [inhibitor, partial curve]. With `O=c1cc(CSc2nnc3ccccn23)c2c(ccc3ccccc32)o1` the Potency was active: 44.7 µM. For `CNS(=O)(=O)c1cc(S(=O)(=O)NC)c2cccc3c2c1NC3=O`, the Potency was inconclusive [inhibitor, single point]. For `Cc1ccc(C)c(N(C)C(=O)CCS(=O)(=O)c2cccc3nonc23)c1`, the Potency was active: 20 µM. For `COc1ccccc1-n1nnnc1S(=O)(=O)Cc1ccc(Cl)cc1`, the Potency was inconclusive [inhibitor, full curve]. With `COc1ccccc1-c1nn2c(-c3ccco3)nnc2s1` the Potency was inconclusive [inhibitor, single point].
